# Some of the results follow.
# Assays:
# Test in all cases: glycan array binding signal (z-score within array); higher = stronger binding
# Conditions in all cases: glycan notation: IUPAC condensed, linker removed
# [1] = biological target: Fuc(a1-2)Gal(b1-4)[Fuc(a1-3)]GlcNAc
# Summary of the method: (§1)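 Glycan array data came from 3228 arrays in the Consortium for Functional Glycomics database, and only arrays with an available protein sequence were kept. Glycan names were put into IUPAC-condensed notation, and columns mapping to the same glycan were averaged. The binding signal is a within-array Z-score, averaged across arrays of one protein sequence run at different concentrations or buffers and across linkers. A negative Z-score can be read as non-binding.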
# [2] = biological target: Fuc(a1-2)Gal(b1-4)[Fuc(a1-3)]GlcNAc(b1-2)Man(a1-3)[Fuc(a1-2)Gal(b1-4)[Fuc(a1-3)]GlcNAc(b1-2)Man(a1-6)]Man(b1-4)GlcNAc(b1-4)GlcNAc
# Summary of the method: as §1
# [3] = biological target: Fuc(a1-2)Gal(b1-4)[Fuc(a1-3)]GlcNAc(b1-2)[Fuc(a1-2)Gal(b1-4)[Fuc(a1-3)]GlcNAc(b1-4)]Man(a1-3)[Fuc(a1-2)Gal(b1-4)[Fuc(a1-3)]GlcNAc(b1-2)Man(a1-6)]Man(b1-4)GlcNAc(b1-4)GlcNAc
# Summary of the method: as §1
# [4] = biological target: Fuc(a1-2)Gal(b1-4)[Fuc(a1-3)]GlcNAc(b1-3)Gal(b1-4)[Fuc(a1-3)]GlcNAc
# Summary of the method: as §1
# [5] = biological target: Fuc(a1-2)Gal(b1-4)[Fuc(a1-3)]GlcNAc(b1-3)Gal(b1-4)[Fuc(a1-3)]GlcNAc(b1-3)Gal(b1-4)[Fuc(a1-3)]GlcNAc
# Summary of the method: as §1
# [6] = biological target: Fuc(a1-2)Gal(b1-4)[Fuc(a1-3)]GlcNAc(b1-3)GalNAc
# Summary of the method: as §1
# [7] = biological target: Fuc(a1-2)Gal6S(b1-4)Glc
# Summary of the method: as §1
# [8] = biological target: Fuc(a1-2)Gal6S(b1-4)Glc6S
# Summary of the method: as §1
# [9] = biological target: Fuc(a1-2)Gal6S(b1-4)GlcNAc
# Summary of the method: as §1
# [10] = biological target: Fuc(a1-2)GlcNAc
# Summary of the method: as §1
# [11] = biological target: Fuc(a1-2)[Gal(a1-3)]Gal
# Summary of the method: as §1
# [12] = biological target: Fuc(a1-2)[Gal(a1-3)]Gal(b1-3)GalNAc
# Summary of the method: as §1
# [13] = biological target: Fuc(a1-2)[Gal(a1-3)]Gal(b1-3)GlcNAc
# Summary of the method: as §1
# [14] = biological target: Fuc(a1-2)[Gal(a1-3)]Gal(b1-3)GlcNAc(b1-2)Man(a1-3)[Fuc(a1-2)[Gal(a1-3)]Gal(b1-3)GlcNAc(b1-2)Man(a1-6)]Man(b1-4)GlcNAc(b1-4)GlcNAc
# Summary of the method: as §1
# [15] = biological target: Fuc(a1-2)[Gal(a1-3)]Gal(b1-3)GlcNAc(b1-2)Man(a1-3)[Fuc(a1-2)[Gal(a1-3)]Gal(b1-3)GlcNAc(b1-2)Man(a1-6)]Man(b1-4)GlcNAc(b1-4)[Fuc(a1-6)]GlcNAc
# Summary of the method: as §1
# [16] = biological target: Fuc(a1-2)[Gal(a1-3)]Gal(b1-3)GlcNAc(b1-3)GalNAc
# Summary of the method: as §1
# [17] = biological target: Fuc(a1-2)[Gal(a1-3)]Gal(b1-4)Glc
# Summary of the method: as §1
# [18] = biological target: Fuc(a1-2)[Gal(a1-3)]Gal(b1-4)GlcNAc
# Summary of the method: as §1
# [19] = biological target: Fuc(a1-2)[Gal(a1-3)]Gal(b1-4)GlcNAc(b1-2)Man(a1-3)[Fuc(a1-2)[Gal(a1-3)]Gal(b1-4)GlcNAc(b1-2)Man(a1-6)]Man(b1-4)GlcNAc(b1-4)GlcNAc
# Summary of the method: as §1
# [20] = biological target: Fuc(a1-2)[Gal(a1-3)]Gal(b1-4)GlcNAc(b1-2)Man(a1-3)[Fuc(a1-2)[Gal(a1-3)]Gal(b1-4)GlcNAc(b1-2)Man(a1-6)]Man(b1-4)GlcNAc(b1-4)[Fuc(a1-6)]GlcNAc
# Summary of the method: as §1
# [21] = biological target: Fuc(a1-2)[Gal(a1-3)]Gal(b1-4)GlcNAc(b1-3)GalNAc
# Summary of the method: as §1
# [22] = biological target: Fuc(a1-2)[Gal(a1-3)]Gal(b1-4)[Fuc(a1-3)]Glc
# Summary of the method: as §1
# [23] = biological target: Fuc(a1-2)[Gal(a1-3)]Gal(b1-4)[Fuc(a1-3)]GlcNAc
# Summary of the method: as §1
# [24] = biological target: Fuc(a1-2)[Gal(a1-3)]Gal(b1-4)[Fuc(a1-3)]GlcNAc(b1-3)GalNAc
# Summary of the method: as §1
# [25] = biological target: Fuc(a1-2)[Gal(a1-4)]Gal(b1-4)GlcNAc
# Summary of the method: as §1
# [26] = biological target: Fuc(a1-2)[GalNAc(a1-3)]Gal
# Summary of the method: as §1
# [27] = biological target: Fuc(a1-2)[GalNAc(a1-3)]Gal(b1-3)GalNAc(a1-3)[Fuc(a1-2)]Gal(b1-4)GlcNAc
# Summary of the method: as §1
# [28] = biological target: Fuc(a1-2)[GalNAc(a1-3)]Gal(b1-3)GlcNAc
# Summary of the method: as §1
# [29] = biological target: Fuc(a1-2)[GalNAc(a1-3)]Gal(b1-3)GlcNAc(b1-2)Man(a1-3)[Fuc(a1-2)[GalNAc(a1-3)]Gal(b1-3)GlcNAc(b1-2)Man(a1-6)]Man(b1-4)GlcNAc(b1-4)GlcNAc
# Summary of the method: as §1
# [30] = biological target: Fuc(a1-2)[GalNAc(a1-3)]Gal(b1-3)GlcNAc(b1-2)Man(a1-3)[Fuc(a1-2)[GalNAc(a1-3)]Gal(b1-3)GlcNAc(b1-2)Man(a1-6)]Man(b1-4)GlcNAc(b1-4)[Fuc(a1-6)]GlcNAc
# Summary of the method: as §1
binder,measurement,setting,value
"ConA (Canavalia ensiformis), P02866 (protein) MAISKKSSLFLPIFTFITMFLMVVNKVSSSTHETNALHFMFNQFSKDQKDLILQGDATTGTDGNLELTRVSSNGSPQGSSVGRALFYAPVHIWESSAVVASFEATFTFLIKSPDSHPADGIAFFISNIDSSIPSGSTGRLLGLFPDANVIRNSTTIDFNAAYNADTIVAVELDTYPNTDIGDPSYPHIGIDIKSVRSKKTAKWNMQNGKVGTAHIIYNSVDKRLSAVVSYPNADSATVSYDVDLDNVLPEWVRVGLSASTGLYKETNTILSWSFTSKLKSNEIPDIATVV",glycan array binding signal (z-score),[1],-0.247
same,glycan array binding signal (z-score),[2],-0.056
same,glycan array binding signal (z-score),[3],-0.138
same,glycan array binding signal (z-score),[4],-0.256
same,glycan array binding signal (z-score),[5],0.073
same,glycan array binding signal (z-score),[6],0.191
same,glycan array binding signal (z-score),[7],-0.254
same,glycan array binding signal (z-score),[8],-0.251
same,glycan array binding signal (z-score),[9],-0.247
same,glycan array binding signal (z-score),[10],-0.125
same,glycan array binding signal (z-score),[11],-0.265
same,glycan array binding signal (z-score),[12],-0.193
same,glycan array binding signal (z-score),[13],-0.213
same,glycan array binding signal (z-score),[14],-0.079
same,glycan array binding signal (z-score),[15],-0.094
same,glycan array binding signal (z-score),[16],-0.237
same,glycan array binding signal (z-score),[17],-0.278
same,glycan array binding signal (z-score),[18],-0.276
same,glycan array binding signal (z-score),[19],-0.183
same,glycan array binding signal (z-score),[20],-0.07
same,glycan array binding signal (z-score),[21],-0.284
same,glycan array binding signal (z-score),[22],-0.161
same,glycan array binding signal (z-score),[23],-0.17
same,glycan array binding signal (z-score),[24],-0.205
same,glycan array binding signal (z-score),[25],-0.296
same,glycan array binding signal (z-score),[26],-0.17
same,glycan array binding signal (z-score),[27],-0.245
same,glycan array binding signal (z-score),[28],-0.279
same,glycan array binding signal (z-score),[29],-0.168
same,glycan array binding signal (z-score),[30],-0.061

# — the supplement of paper PMC8728848
